Source: publication PMC1950744, “Transcription Termination Defective Mutants of Rho: Role of Different Functions of Rho in Releasing RNA from the Elongation Complex” (Journal of Molecular Biology, 2007)

B1: Rho N340S (enzyme)
chain: not shown
notes: Transcription termination factor Rho, Escherichia coli; mutant rho gene cloned at NdeI/XhoI of pET21b; source: E. coli BL21(DE3), purified (Ni-NTA, heparin-Sepharose)
B2: Rho G324D (enzyme)
chain: not shown
notes: as for B1
B3: Rho P279S (enzyme)
chain: not shown
notes: as for B1
B4: Rho G51V (enzyme)
chain: not shown
notes: as for B1
B5: Rho Y80C (enzyme)
chain: not shown
notes: Transcription termination factor Rho, Escherichia coli; mutant rho gene cloned at NdeI/XhoI of pET21b; source: E. coli BL21(DE3), purified (Ni-NTA in the presence of 1 M NaCl, heparin-Sepharose)
B6: Rho Y274D (enzyme)
chain: not shown
notes: as for B1
B7: Rho I382N (enzyme)
chain: not shown
notes: Transcription termination factor Rho, Escherichia coli; mutant rho gene cloned at NdeI/XhoI of pET21b; source: E. coli BL21SI (salt-inducible strain), purified (Ni-NTA, heparin-Sepharose)

Target: the molecule itself
Assay: cross-linking; chemical cross-linking of purified Rho proteins; hexamer above the concentration of 1 μM; data not shown

Stoichiometry N, 6:
B1
B2
B3
B4
B5
B6
B7
